{"source": "the supplement of paper PMC4166925", "note": "± gives the standard deviation of the averaged measurements. The full ranking holds about 33,000 sequences; the median of “E-score (dimensionless, -0.5 to 0.5)” is about -0.049, and the highest 2% start at about 0.37. The list shows a part of the results.", "data": [{"tested_on": "T1, PmTbr T-box DNA-binding domain (GST fusion)", "T1 sequence": "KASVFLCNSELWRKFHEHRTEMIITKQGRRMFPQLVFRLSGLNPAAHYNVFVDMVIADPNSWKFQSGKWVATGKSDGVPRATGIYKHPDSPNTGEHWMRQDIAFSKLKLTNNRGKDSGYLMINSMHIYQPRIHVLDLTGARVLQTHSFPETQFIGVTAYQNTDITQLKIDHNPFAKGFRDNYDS", "experiment": "PBM E-score of 8-mer (E-score (dimensionless, -0.5 to 0.5)); Tbr is Tbrain of the sea star Patiria miniata (Pm) or the sea urchin Strongylocentrotus purpuratus (Sp); higher = stronger binding preference; most listed sequences are background and not binding sites", "settings": "the construct has about 5 more residues each side", "method_in_brief": "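Each ungapped 8-mer received an enrichment E-score from the Universal PBM Analysis Suite, averaged over duplicate arrays. The proteins were Tbr T-box DNA-binding domains, covering the whole T-box plus about five flanking residues, fused to GST and expressed in BL21 E. coli at 20 °C before glutathione affinity purification. Universal Agilent oligonucleotide arrays were made double-stranded by primer extension and incubated with 200 nM protein in PBS (pH 7.5). The arrays were then scanned and quantified, and every 8-mer was scored from probe intensities.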", "values": [{"sequence": "CTTGGCGC", "PBM E-score of 8-mer": "0.294 ± 0.049"}, {"sequence": "TACCTCTA", "PBM E-score of 8-mer": "-0.0582 ± 0.013"}, {"sequence": "CTCCGAGA", "PBM E-score of 8-mer": "-0.239 ± 0.025"}, {"sequence": "CAGGGAGA", "PBM E-score of 8-mer": "-0.155 ± 0.026"}, {"sequence": "ACGACGGA", "PBM E-score of 8-mer": "-0.0461 ± 0.044"}, {"sequence": "AAGTTGGG", "PBM E-score of 8-mer": "-0.308 ± 0.011"}, {"sequence": "AACTCTGC", "PBM E-score of 8-mer": "0.146 ± 0.075"}, {"sequence": "GGAAACTA", "PBM E-score of 8-mer": "-0.121 ± 0.022"}, {"sequence": "ATTTCGCG", "PBM E-score of 8-mer": "0.4125 ± 0.00097"}, {"sequence": "ATTTCAAC", "PBM E-score of 8-mer": "0.112 ± 0.065"}, {"sequence": "CGAGGCAG", "PBM E-score of 8-mer": "-0.0585 ± 0.057"}, {"sequence": "TCATGCGA", "PBM E-score of 8-mer": "0.121 ± 0.039"}, {"sequence": "ATTCGTTC", "PBM E-score of 8-mer": "-0.0991 ± 0.007"}, {"sequence": "GAAAACTC", "PBM E-score of 8-mer": "-0.187 ± 0.12"}, {"sequence": "ATCTGAGC", "PBM E-score of 8-mer": "-0.102 ± 0.0091"}, {"sequence": "CTGAGATC", "PBM E-score of 8-mer": "-0.0112 ± 0.012"}, {"sequence": "AGAAGGAC", "PBM E-score of 8-mer": "-0.222 ± 0.04"}, {"sequence": "CAGTCTTA", "PBM E-score of 8-mer": "-0.181 ± 0.075"}, {"sequence": "GGCCCGCC", "PBM E-score of 8-mer": "-0.1 ± 0.0086"}, {"sequence": "GTTCATTA", "PBM E-score of 8-mer": "-0.174 ± 0.049"}, {"sequence": "GTTTAGAA", "PBM E-score of 8-mer": "-0.119 ± 0.0041"}, {"sequence": "GAGACCCA", "PBM E-score of 8-mer": "-0.0814 ± 0.019"}, {"sequence": "ACCAGGTG", "PBM E-score of 8-mer": "0.369 ± 0.028"}, {"sequence": "AACTAAGC", "PBM E-score of 8-mer": "-0.276 ± 0.029"}, {"sequence": "GAAAATAA", "PBM E-score of 8-mer": "-0.0661 ± 0.086"}, {"sequence": "CATTGCTC", "PBM E-score of 8-mer": "-0.171 ± 0.039"}, {"sequence": "CCACAGGG", "PBM E-score of 8-mer": "0.0186 ± 0.043"}, {"sequence": "CTGGCGAA", "PBM E-score of 8-mer": "0.00558 ± 0.064"}, {"sequence": "AAGTCGAG", "PBM E-score of 8-mer": "0.139 ± 0.037"}, {"sequence": "AGAAGGTA", "PBM E-score of 8-mer": "-0.2003 ± 0.00059"}, {"sequence": "AGTTGAGC", "PBM E-score of 8-mer": "-0.174 ± 0.045"}, {"sequence": "CGTGGTCC", "PBM E-score of 8-mer": "-0.274 ± 0.016"}, {"sequence": "CCTATGAC", "PBM E-score of 8-mer": "-0.0506 ± 0.12"}, {"sequence": "ATCAGTGA", "PBM E-score of 8-mer": "0.137 ± 0.023"}, {"sequence": "GGAGTTAA", "PBM E-score of 8-mer": "-0.103 ± 0.0049"}, {"sequence": "AAAATGCT", "PBM E-score of 8-mer": "-0.21 ± 0.14"}, {"sequence": "CGATGTCC", "PBM E-score of 8-mer": "-0.273 ± 0.085"}, {"sequence": "CAGGGGTA", "PBM E-score of 8-mer": "-0.3236 ± 0.00049"}, {"sequence": "CGCTAGCG", "PBM E-score of 8-mer": "0.226 ± 0.067"}, {"sequence": "AACCTTGT", "PBM E-score of 8-mer": "-0.137 ± 0.028"}, {"sequence": "ACCACTAG", "PBM E-score of 8-mer": "0.0294 ± 0.1"}, {"sequence": "ACCGTCAT", "PBM E-score of 8-mer": "0.0246 ± 0.048"}, {"sequence": "CGGCCCAG", "PBM E-score of 8-mer": "-0.3 ± 0.013"}, {"sequence": "CCTCGACG", "PBM E-score of 8-mer": "0.0979 ± 0.034"}, {"sequence": "TCTTCCCA", "PBM E-score of 8-mer": "0.114 ± 0.031"}, {"sequence": "AAGATGCT", "PBM E-score of 8-mer": "-0.255 ± 0.015"}, {"sequence": "GCGACAGC", "PBM E-score of 8-mer": "0.257 ± 0.055"}, {"sequence": "AAGAATGA", "PBM E-score of 8-mer": "-0.165 ± 0.067"}, {"sequence": "CCCGTCCG", "PBM E-score of 8-mer": "-0.0884 ± 0.029"}, {"sequence": "CCAATCCA", "PBM E-score of 8-mer": "0.0156 ± 0.023"}, {"sequence": "ACTCCAGC", "PBM E-score of 8-mer": "-0.321 ± 0.02"}, {"sequence": "GACTCCCC", "PBM E-score of 8-mer": "-0.275 ± 0.01"}, {"sequence": "GCGGCGTA", "PBM E-score of 8-mer": "-0.222 ± 0.042"}, {"sequence": "AACCCCAC", "PBM E-score of 8-mer": "-0.18 ± 0.0053"}, {"sequence": "AACCCCAT", "PBM E-score of 8-mer": "0.0259 ± 0.0045"}, {"sequence": "CAAGCACG", "PBM E-score of 8-mer": "-0.00962 ± 0.075"}, {"sequence": "ACATGGCA", "PBM E-score of 8-mer": "-0.0575 ± 0.011"}, {"sequence": "ACATTGTG", "PBM E-score of 8-mer": "0.137 ± 0.056"}, {"sequence": "AAACACGG", "PBM E-score of 8-mer": "-0.0366 ± 0.031"}, {"sequence": "ACGCGAAG", "PBM E-score of 8-mer": "0.18 ± 0.019"}, {"sequence": "AGAGGGGG", "PBM E-score of 8-mer": "-0.146 ± 0.042"}, {"sequence": "ATTAATTA", "PBM E-score of 8-mer": "-0.106 ± 0.11"}, {"sequence": "AGGAGTGA", "PBM E-score of 8-mer": "0.23 ± 0.019"}, {"sequence": "AAACTACC", "PBM E-score of 8-mer": "-0.213 ± 0.0037"}, {"sequence": "CGTTTCGA", "PBM E-score of 8-mer": "-0.0391 ± 0.05"}, {"sequence": "ACGTGGCC", "PBM E-score of 8-mer": "-0.0508 ± 0.0038"}, {"sequence": "CAACCCGA", "PBM E-score of 8-mer": "0.142 ± 0.088"}, {"sequence": "GTAGGAAA", "PBM E-score of 8-mer": "-0.0915 ± 0.041"}, {"sequence": "GCTCCGTA", "PBM E-score of 8-mer": "-0.00898 ± 0.025"}, {"sequence": "ATATATAC", "PBM E-score of 8-mer": "-0.1216 ± 0.00046"}, {"sequence": "AGCTCCCG", "PBM E-score of 8-mer": "-0.141 ± 0.045"}, {"sequence": "CATTCAAA", "PBM E-score of 8-mer": "-0.13 ± 0.052"}, {"sequence": "ATGCAACA", "PBM E-score of 8-mer": "0.0352 ± 0.063"}, {"sequence": "CACAGTCG", "PBM E-score of 8-mer": "0.1345 ± 0.0012"}, {"sequence": "TATATCCA", "PBM E-score of 8-mer": "-0.177 ± 0.035"}, {"sequence": "AACCAGGG", "PBM E-score of 8-mer": "-0.105 ± 0.052"}, {"sequence": "GTGTCAAC", "PBM E-score of 8-mer": "0.466 ± 0.007"}, {"sequence": "AGAATTTG", "PBM E-score of 8-mer": "-0.0367 ± 0.037"}, {"sequence": "AAAGCTGG", "PBM E-score of 8-mer": "0.0741 ± 0.016"}, {"sequence": "AACCCAGC", "PBM E-score of 8-mer": "-0.112 ± 0.039"}, {"sequence": "GCCTATAA", "PBM E-score of 8-mer": "-0.0939 ± 0.0041"}, {"sequence": "GCGGACAC", "PBM E-score of 8-mer": "0.253 ± 0.011"}, {"sequence": "GCCTCAGA", "PBM E-score of 8-mer": "-0.241 ± 0.039"}, {"sequence": "CAACCCCG", "PBM E-score of 8-mer": "0.0625 ± 0.04"}, {"sequence": "CGAACTCC", "PBM E-score of 8-mer": "-0.0375 ± 0.092"}, {"sequence": "AATTGTCT", "PBM E-score of 8-mer": "-0.25 ± 0.003"}]}]}
